The results in this text go back to PubChem BioAssay AID360 (National Center for Advancing Translational Sciences (NCATS), 2006).

About 550 (1.1%) of roughly 48,000 compounds were called active. Roughly 4% stayed inconclusive and do not appear here. No stated cut-off is given here; in the data, active means potency below about 15 µM; inconclusive means mostly about 16 µM to 33 µM; inactive means weaker than that. Some of the results follow.
Potency means the concentration at half of the fitted maximal effect.

This assay addresses Lysosomal acid glucosylceramidase (Homo sapiens) (UniProt P04062). Nature of the assay: Glucocerebrosidase.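 Further: the screen sought inhibitors.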 Particulars: purified enzyme, resorufin glucoside fluorescence (screen aimed at inhibitors), 20 min. In outline: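 Compounds titrated against 0.2 nM normal enzyme, 30 uM resorufin beta-D-glucopyranoside substrate, citrate/phosphate buffer with taurocholate and tween-20, pH 5.9. Reaction ran 20 min at room temperature; fluorescence (Ex 548/Em 600) gave AC50.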
Chain of UniProt P04062 (P04062 whole entry, looked up): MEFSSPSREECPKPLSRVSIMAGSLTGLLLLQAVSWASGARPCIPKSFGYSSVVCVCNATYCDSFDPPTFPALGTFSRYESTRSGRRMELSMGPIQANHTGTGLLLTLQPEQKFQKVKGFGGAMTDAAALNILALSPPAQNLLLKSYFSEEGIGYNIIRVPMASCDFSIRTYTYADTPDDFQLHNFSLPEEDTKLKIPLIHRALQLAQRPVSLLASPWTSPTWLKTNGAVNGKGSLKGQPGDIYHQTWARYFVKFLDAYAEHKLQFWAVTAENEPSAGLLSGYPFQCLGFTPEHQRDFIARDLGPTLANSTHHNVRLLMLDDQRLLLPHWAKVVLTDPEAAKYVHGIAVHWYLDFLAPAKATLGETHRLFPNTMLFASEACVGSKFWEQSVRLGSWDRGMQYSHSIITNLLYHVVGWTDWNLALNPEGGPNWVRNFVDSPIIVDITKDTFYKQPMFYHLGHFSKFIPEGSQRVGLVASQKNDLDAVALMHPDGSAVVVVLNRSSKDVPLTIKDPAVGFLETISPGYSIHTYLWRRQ
Turning to `CCNC(=O)CSc1nc2ccccc2c(=O)n1OC`, the Potency was inactive: > 76.9 µM. Next, `CCN(CC)S(=O)(=O)N1CCC(C(=O)NC2CCCc3ccccc32)CC1` (stereo not given): inactive: > 76.9 µM. Take `CCCCc1cc(=O)oc2c(CN(C)C)c(O)ccc12`: the Potency is inactive: > 76.9 µM. With `CCOc1ccc(S(=O)(=O)NCCC(=O)OCN2C(=O)c3ccccc3C2=O)cc1` the figure was inactive: > 76.9 µM; with `CCOC(=O)c1cc2c(ccn2-c2ccc(F)cc2)n1CC(=O)N1CCN(C(=O)c2ccco2)CC1`, inactive: > 76.9 µM. Next, `CCOC(=O)N1CCN(c2c(NCCCN(CC)Cc3ccccc3)c(=O)c2=O)CC1`: inactive: > 76.9 µM; `COc1ccccc1-c1ccc(=O)n(CC(=O)NCc2ccc3c(c2)OCO3)n1`: inactive: > 76.9 µM; `CCN1CCN(Cc2c(O)ccc3c(=O)c(-c4ccccc4OC)coc23)CC1`: inactive: > 76.9 µM. Next, `CCC1CCCCN1Cc1ccc(CNS(=O)(=O)c2ccc3c(c2)oc(=O)n3C)o1` (stereo not given): inactive: > 76.9 µM; `Cc1cccc(OCc2nnc(SCC(=O)Nc3sc(C)c(C)c3C#N)n2C)c1`: inactive: > 76.9 µM; `O=C(Nc1cc(C(F)(F)F)ccc1N1CCCC1)c1cccnc1`: inactive: > 76.9 µM. Consider `Cc1noc(C)c1COC(=O)Cc1ccc(Cl)cc1`, for which the Potency was inactive: > 76.9 µM.

On to `CC(C)c1nnc(SCC(=O)NCc2ccco2)n1C`, for which the Potency is inactive: > 76.9 µM. Next, `CCN(CC)S(=O)(=O)c1ccc(-c2nnc(SCC(=O)N3CCOCC3)o2)cc1`: inactive: > 76.9 µM. With `CC(C)C(c1nnnn1Cc1ccc(F)cc1)N1CCN(Cc2ccc3c(c2)OCO3)CC1` (stereo not given) the figure was inactive: > 76.9 µM; with `CCOC(=O)N1CCN(C(=O)CNS(=O)(=O)c2cccs2)CC1`, inactive: > 76.9 µM. On to `CCSc1nnc(NC(=O)CSc2nc3c(c(=O)n2CC)SC(C)C3)s1` (stereo not given), for which the Potency is inactive: > 76.9 µM. On to `CSCC[C@H](NC(=O)Nc1ccc(C)cc1)C(=O)O`, for which the Potency was inactive: > 76.9 µM. With `CC1S/C(=C(\C#N)C(=O)NCc2ccco2)N(Cc2ccco2)C1=O` (stereo not given) the figure was inactive: > 76.9 µM. With `O=S(=O)(NC1CC1)c1ccc(S(=O)(=O)N2CCc3ccccc32)cc1` the figure was inactive: > 76.9 µM; with `COc1ccc(-c2nc(CSCC(=O)NCC3CCCO3)c(C)o2)cc1OC` (stereo not given), inactive: > 76.9 µM. For `COC(=O)c1ccc(COc2ccc3c4c(c(=O)oc3c2)CCC4)o1`, the Potency is inactive: > 76.9 µM. With `CCC(C)C(=O)Nc1cc(C(=O)OC)cc(C(=O)OC)c1` (stereo not given) the figure was inactive: > 76.9 µM; with `Cc1cccc(-c2nc(C#N)c(N3CCCCCC3)o2)c1`, inactive: > 76.9 µM. Next, `COc1ccccc1OCc1ccc(C(=O)NC(C)(C)C)o1`: inactive: > 76.9 µM. With `CSc1ccccc1NC(=O)c1ccco1`, the Potency is inactive: > 76.9 µM.

`CCn1c2ccccc2c2cc(NC(=O)COC(=O)Cc3cn4ccsc4n3)ccc21`: the Potency is inactive: > 76.9 µM.

Consider `C=C(C)CSc1nc2nc(C)cc(C)n2n1`, for which the Potency was inactive: > 76.9 µM. Next, `CCn1c(=O)n(CC)c2cc(S(=O)(=O)NCCOc3ccccc3)c(C)cc21`: inactive: > 76.9 µM. As for `CS(=O)(=O)N(CC(=O)NCC1CCCO1)Cc1ccc(Cl)cc1` (stereo not given), the Potency was inactive: > 76.9 µM. Regarding `O=C(CSc1nnc(-c2ccc(F)cc2)o1)c1ccc2c(c1)OCCO2`, the Potency was inactive: > 76.9 µM. On to `Oc1ccc(-c2nc3ncccn3c2Nc2ccc3c(c2)OCO3)cc1`, for which the Potency is inactive: > 76.9 µM.

`c1ccc(-c2ncnc3nc4n(c23)CCC4)cc1`: the Potency is inactive: > 76.9 µM. With `COc1ccccc1C1/C(=C(\O)c2c(C)nc3c(C)cccn23)C(=O)C(=O)N1CCCN(C)C` (stereo not given) the figure was inactive: > 76.9 µM; with `COc1cccc(NC(=O)CSCc2n[nH]c(=O)[nH]2)c1`, inactive: > 76.9 µM; with `CC(C)(C)NC(=O)C(Cc1ccccc1)NS(=O)(=O)c1ccc2c(c1)CCC(=O)N2` (stereo not given), “inactive”.

As to `CCN(c1ccccc1)S(=O)(=O)c1ccc(F)c(C(=O)O)c1`, the Potency is inactive: > 76.9 µM. With `CCOc1ccc(C(C)(C)C)cc1S(=O)(=O)N1CC(C)OC(C)C1` (stereo not given) the figure was inactive: > 76.9 µM; with `CC(=O)NCCc1ccc(S(=O)(=O)N2CCOCC2)cc1`, inactive: > 76.9 µM; with `Clc1ccc2c(N3CCCC3)ccnc2c1`, inactive: > 76.9 µM. For `O=C1c2ccccc2N2C(=O)c3ccccc3C2N1O` (stereo not given), the Potency is inactive: > 76.9 µM. With `O=C(C1CCCCC1)N(Cc1nc2sc3c(c2c(=O)[nH]1)CCCC3)Cc1cccs1` the figure was inactive: > 76.9 µM; with `Nc1ccc(CCS(N)(=O)=O)cc1`, inactive: > 76.9 µM; with `CCOC(=O)c1sc(=S)n(-c2cccc(OC)c2)c1N`, inactive: > 76.9 µM. On to `CC(C)(C#N)Nn1cnnc1`, for which the Potency was inactive: > 76.9 µM. With `Cc1ccc(CNC(=O)c2coc(=O)c3ccccc23)o1` the figure was inactive: > 76.9 µM. As to `COc1ccccc1C(=O)Nc1ccc(N2CCN(S(C)(=O)=O)CC2)cc1`, the Potency was inactive: > 76.9 µM. Next, `O=C(O)C1C2CCC(C2)C1C(=O)Nc1nc2ccccc2s1` (stereo not given): inactive: > 76.9 µM. As for `COc1cccc(-c2nc(-c3ccccc3)no2)c1`, the Potency result is “inactive”.

Turning to `O=C(CN1CCN(S(=O)(=O)c2ccccc2)CC1)Nc1ccc2c(c1)OCO2`, the Potency was inactive: > 76.9 µM. For the molecule `O=c1c2cnn(-c3ccccc3)c2ncn1Cc1ccccc1`, the Potency was inactive: > 76.9 µM.

For the molecule `CCn1cc(NC(=O)Nc2ccc(OC)c(OC)c2)c(C(N)=O)n1`, the Potency was inactive: > 76.9 µM.

Turning to `COc1cc(Cl)ccc1S(=O)(=O)n1nc(C)cc1C`, the Potency is inactive: > 76.9 µM. Next, `CSc1nsc(SCC(=O)Nc2ccc3c(c2)OCCO3)n1`: inactive: > 76.9 µM; `Cc1nn(-c2ccccc2)c(=S)n1-c1ccccc1`: inactive: > 76.9 µM. With `CCCSc1nnc(-c2cccc(S(=O)(=O)N(C)C)c2)n1-c1cc(OC)ccc1OC` the entry was “inactive”; with `COc1c(F)c(F)c(C(=O)Nc2ccc3oc(-c4ccncc4)nc3c2)c(F)c1F`, inactive: > 76.9 µM; with `Cc1cc(C)n2cc(CSc3nc4cc(Cl)ccc4o3)nc2n1`, inactive: > 76.9 µM.

Turning to `Cc1cc(C)c2[nH]c(=O)c(C(c3nnnn3C(C)(C)C)N3CCN(C(=O)c4ccco4)CC3)cc2c1` (stereo not given), the Potency was inactive: > 76.9 µM. With `CCOC(=O)c1cnc(-n2nc(C)cc2C)nc1N1CC(C)OC(C)C1` (stereo not given) the figure was inactive: > 76.9 µM; with `O=C(COc1ccc(S(=O)(=O)N2CCOCC2)cc1)NC1CCCC1`, inactive: > 76.9 µM; with `CCOC(=O)c1[nH]c(COC(=O)C2CC(=O)N(Cc3ccccc3)C2)c(C(=O)OCC)c1C` (stereo not given), inactive: > 76.9 µM. Next, `COc1cccc(-c2csc(N3CCN(C(=O)Nc4ccccc4OC)CC3)n2)c1`: inactive: > 76.9 µM.

Regarding `CC1CCN(C(=O)CSc2nnc(-c3cccnc3)n2C2CCCCC2)CC1`, the Potency was inactive: > 76.9 µM.

As for `COc1ccccc1C(=O)N1CCC(C(=O)c2ccc(F)cc2)CC1`, the Potency was inactive: > 76.9 µM. As to `CCCn1nc(C(=O)Nc2cccc(C(=O)OC)c2)c2ccccc2c1=O`, the Potency was inactive: > 76.9 µM. With `CCC(NS(=O)(=O)c1ccc(C)cc1)C(=O)Nc1ccc(NC(C)=O)cc1` (stereo not given) the figure was inactive: > 76.9 µM; with `COc1ccc(OC)c(NS(=O)(=O)c2ccc3c(c2)CCC(=O)N3)c1`, inactive: > 76.9 µM. Next, `CCOC(=O)c1ccccc1NC(=O)Cn1cnc2c(cnn2-c2ccc(OC)cc2)c1=O`: inactive: > 76.9 µM; `Cc1ccc(F)cc1NC(=O)c1ccc2c(c1)OCO2`: inactive: > 76.9 µM; `O=C(NCC1CCCO1)c1ccc(C(=O)NCC2CCCO2)cc1` (stereo not given): inactive: > 76.9 µM. For `COc1ccccc1NS(=O)(=O)c1ccc(Cl)cc1`, the Potency is inactive: > 76.9 µM.

`O=C(C1CCN(S(=O)(=O)c2cccc3nsnc23)CC1)N1CCc2ccccc21`: the Potency was inactive: > 76.9 µM.

As to `O=C(C1CC1)N1CCc2cc(S(=O)(=O)NCC3COc4ccccc4O3)ccc21` (stereo not given), the Potency was inactive: > 76.9 µM. Next, `COc1ccccc1CN1C(=S)SC(C)(C)C1NO` (stereo not given): inactive: > 76.9 µM; `CCCOc1cccc(C2C(C(=O)c3ccco3)=C(O)C(=O)N2CCN(CC)CC)c1` (stereo not given): inactive: > 76.9 µM; `CC(C)OC(=O)CSc1nnc(Cc2ccccc2)n1C`: inactive: > 76.9 µM. With `Cc1cc(C)nc(SCc2nnc(SCC(=O)Nc3ccccc3C)n2Cc2ccco2)n1` the figure was inactive: > 76.9 µM; with `O=c1cc(N2CCc3ccccc32)[nH]c(=O)n1Cc1ccc(F)cc1`, inactive: > 76.9 µM. Next, `COC(=O)Nc1nnc(CC(=O)Nc2ccccc2C)s1`: inactive: > 76.9 µM; `O=C(CCCSc1nc2ccccc2s1)NCc1ccco1`: inactive: > 76.9 µM. For `COC(=O)c1ccc2c(=O)n(CCCCCC(=O)N3CCN(c4ccccc4)CC3)c(=O)[nH]c2c1`, the Potency was inactive: > 76.9 µM.

In the case of `COC(=O)CCN(C1CCCCC1)S(=O)(=O)c1ccc(S(=O)(=O)N2CCCCC2)cc1`, the Potency is inactive: > 76.9 µM. Next, `CCOC(=O)N1CCN(C(=O)Nc2ccc3nc(C)sc3c2)CC1`: inactive: > 76.9 µM.

For `Clc1ccc(Cl)c2sc(N3CCOCC3)nc12`, the Potency is inactive: > 76.9 µM. With `O=C(NCCO)c1cc2ccccc2c(=O)s1` the entry was “inactive”; with `CC(Oc1ccccc1)C(=O)Nc1ccc(C(N)=O)cc1` (stereo not given), inactive: > 76.9 µM. In the case of `C=CCn1c(SCC(=O)Nc2ccc(NC(=O)c3ccco3)c(OC)c2)nnc1-c1ccncc1`, the Potency is inactive: > 76.9 µM. With `Cc1ccc(-n2nnnc2SCC(=O)c2cc(C)n(-c3cc(C)on3)c2C)cc1` the figure was inactive: > 76.9 µM; with `Cc1cc(C)n(-c2nc3c(c(=O)[nH]c(=O)n3C)n2CC(O)c2ccccc2)n1` (stereo not given), inactive: > 76.9 µM.
